Experimental data taken from PubChem BioAssay (NCI).
“And” between values parts separate entries of the source, which are not always exact repeats. Identical values can stand only once.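 Assay format: 96-well plates, 48-hour exposure. The concentration for 50% growth inhibition is given as GI50. TGI: total growth inhibition.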

Tested on: NCI-H322M lung
Assay: DTP human tumour cell line panel, 48 h

| Compound | GI50 | TGI |
| --- | --- | --- |
| CCC1=C[C@@H]2CN(C1)Cc1c([nH]c3ccccc13)[C@@](C(=O)OC)(c1cc3c(cc1OC)N(C)[C@H]1[C@@](O)(C(=O)OC)[C@H](OC(C)=O)[C@]4(CC)C=CCN5CC[C@]31[C@@H]54)C2 | < 0.01 µM | 20.7 µM |
| Cc1n[nH]c(=O)n1Nc1ccccc1 |  | > 100 µM |
| Clc1ccc(OCc2nnc3sc(SSc4nn5c(COc6ccc(Cl)cc6)nnc5s4)nn23)cc1 |  | > 100 µM |
| CN(CC(=O)O)CC(=O)O |  | > 100 µM |
| CC(=O)N(C)c1cc(NCc2ccccc2)ccc1OCc1ccccc1 |  | 43.3 µM |
| OCC1C2CCC3(OCCO3)C12 (stereo unspecified) |  | > 100 µM |
| C=C[C@H]1CN2CCc3c([nH]c4c([C@@H]5CCCN5C)c(O)ccc34)[C@@H]2C[C@@H]1C[C@H]1c2[nH]c3ccccc3c2CCN1C | 1.82 µM | 3.24 µM and 2.93 µM |
| COC(=O)C(=NNc1ccccc1[N+](=O)[O-])C(=O)OC |  | > 100 µM |
| CC(C)NC(=O)OCc1nnn2c1CCC2 |  | > 100 µM |
| CCCC(=O)N(C)N=Nc1ccc(C(=O)OCC)cc1 |  | > 100 µM |
| O=[N+]([O-])c1cnc(N(CCO)CCO)s1 |  | > 100 µM |
| C=C1C[C@@H](O)[C@@H](Br)C(C)(C)[C@]12CCC(C)(Br)C(Cl)C2 (stereo partly specified) | 19.1 µM | > 50 µM and 40.4 µM |
| O=C(CN(Cc1ccccc1)Cc1ccccc1)N1CCc2c([nH]c3ccccc23)C1c1cccnc1 (stereo unspecified) |  | > 100 µM |
| CC1=NNC(=O)C1C1CC(c2c[nH]c3ccccc23)=NN(c2ccccc2)C1=O (stereo unspecified) |  | > 100 µM |
| CC1NC(C(=O)O)Cc2cc(O)c(O)cc21 (stereo unspecified) |  | > 100 µM |
| COC(O)C(=O)c1c2c(cc3c1CCC3)CCC2 (stereo unspecified) |  | > 100 µM |
| COC(=O)[C@H](C)NC(=O)C1(CNC(=O)[C@H](C)NC(=O)OC(C)(C)C)Cc2ccccc2-c2ccccc2C1 |  | > 88.2 µM |
| COc1ccc(Cc2cc(OC)c(OC)c(OC)c2)cc1 |  | > 100 µM |
| COC(=O)[C@H](Cc1ccccc1)NNC(=O)c1csc([C@@H](C[C@H](C(C)C)N(C)C(=O)[C@@H](NC(=O)[C@H]2CCCCN2C)C2CC2)OC(C)=O)n1 |  | 25 µM and > 100 µM |
| CSC1=C(SC)C(=O)c2cn(C)c(=O)cc2C1=O |  | 32.9 µM |
| COc1ccc(C2=NN(C=O)C(c3ccc(OS(=O)(=O)c4ccc(C)cc4)c(OC)c3)C2)cc1 (stereo unspecified) | > 100 µM | > 100 µM |
| N#CC(NNC(=O)c1c(Cl)c(Cl)c(Cl)c(Cl)c1-c1nc2ccc(C(=O)c3ccccc3)cc2[nH]1)c1ccccc1 (stereo unspecified) |  | > 100 µM |
| CCOC(=O)c1cc(C2=CCNC2=O)c(-c2cc(C)no2)[nH]1 |  | > 100 µM |
| O=C(CN1CCN(CCN2C(=O)c3cccc4cccc(c34)C2=O)CC1)Nc1ccc2ncsc2c1 | > 100 µM | > 100 µM |

| Compound | GI50 | TGI |
| --- | --- | --- |
| Cc1cc(N(CCC#N)CCC#N)ccc1/C=C1N=C(/C=C/c2ccccc2)N(c2ccc(S(N)(=O)=O)cc2)C\1=O |  | > 100 µM |
| C[C@@H](Oc1ccc(Oc2cnc3ccc(Cl)cc3n2)cc1)C(=O)O |  | > 100 µM |
| COc1ccc2nc3c(C)cc4ccccc4n3c2c1 |  | > 100 µM |
| OC(c1ccccc1)C1CC2C=CC1C2 (stereo unspecified) |  | > 100 µM |
| CCSc1nc(NC(C)c2ccccc2)c2cnn(CO)c2n1 (stereo unspecified) | 61.1 µM | > 100 µM |
| Clc1cc2nc(C3CCCCO3)[nH]c2cc1Cl (stereo unspecified) |  | 99.5 µM |
| O=C(/C=C\c1ccsc1)c1ccccc1 |  | 26.5 µM |
| COC(=O)CC1C2(C)C3=C(C)C(c4ccoc4)CC3OC2C2OC(=O)C3(C)C=CC(=O)C1(C)C23 (stereo unspecified) |  | 4.95 µM |
| CC(C)COC(=O)c1ccc(N=Cc2ccc(C=Nc3ccc(C(=O)OCC(C)C)cc3)cc2)cc1 |  | > 100 µM |
| c1ccc(COCC[P+](c2ccccc2)(c2ccccc2)c2ccccc2)cc1 | 3.56 µM | 30.7 µM |
| Cc1cncc(-c2nc(NCCc3c[nH]c4ccccc34)c3ncn(C(C)C)c3n2)c1 | 4.82 µM | 32.8 µM |
| CCCCOC(=O)/C=C\C(=O)NC(N)=O | 46.4 µM | > 100 µM |
| OCC(O)C(O)C(O)C(O)CNCCO/N=C1/C(c2c(O)[nH]c3ccccc23)=Nc2ccccc21 (stereo unspecified) |  | > 50 µM |
| Cc1occc1C(=S)Nc1ccc(Cl)c(C(=O)OCC(C)C)c1 |  | 44.6 µM |
| CCOC(=O)NC(Nc1ccc(S(=O)(=O)Nc2ccc(OC)nn2)cc1)(C(F)(F)F)C(F)(F)F |  | > 100 µM |
| CC(C(=O)NCCNC(=O)CCCC(=O)N(C)O)C(=O)NCCNC(=O)CCCC(=O)N(C)O |  | > 100 µM |
| CC(=O)OC1CC2C(C)(C)CCC[C@]2(C)C2=C1C(O)=C(C(C)C)C(=O)C2=O (stereo partly specified) | 0.482 µM | 2.38 µM |
| CN(C)c1ccc(/C=C(\C#N)c2ccccc2)cc1 | 2.47 µM and 3.44 µM and 7.37 µM | > 100 µM |
| COc1ccc(C[n+]2cccc(O)c2)cc1 |  | > 100 µM |
| CN1CCN(Cc2ccc(NC(=O)c3cncc(C#Cc4c(N)ncc5c(F)cccc45)c3)cc2C(F)(F)F)CC1 | 0.815 µM | 1.61 µM |
| COc1cccc(N2C(=O)/C(=C/c3ccc(N(CCC#N)CCC#N)cc3)N=C2c2cc([N+](=O)[O-])ccc2Cl)c1 |  | > 100 µM |
| C[C@]12CCCN1CC1=NNC(=O)c3cc(F)cc4[nH]c2c1c34 | 27.1 µM | > 100 µM |
| NC(=O)c1cc(I)ccc1NC(=O)/C=C/c1ccccc1Cl | 1.72 µM |  |
| NC(CP(=O)(O)O)C(=O)O (stereo unspecified) |  | > 100 µM |

| Compound | GI50 | TGI |
| --- | --- | --- |
| O=S1(=O)OCCOS(=O)(=O)C1(Cl)Cl |  | > 100 µM |
| O=C(CCc1ccc(O)c(O)c1)NCCc1ccccc1 |  | > 100 µM |
| CCNC(=O)Oc1ccc(/C(=C(\C)c2ccc(Cl)cc2)c2ccc(OCCN(CC)CC)cc2)cc1 | 5.36 µM | 18.3 µM |
| O=C1c2cccc([N+](=O)[O-])c2C(=O)c2nccnc21 |  | 4.05 µM |
| CN1C(=O)N/C(=C\c2ccc(S(=O)(=O)N/N=C/c3ccccc3)cc2)C1=O |  | > 100 µM |
| N#CC(C(=O)CCC(=O)Nc1ccc(Cl)cc1)c1ccc(Cl)cc1 (stereo unspecified) |  | > 100 µM |
| O=C1C(Cl)=C(N2CCN(CCOCCO)CC2)C(=O)c2ccccc21 |  | 37.4 µM |
| O=C(NCCCl)NCCN1c2nc3ccccc3cc2Sc2cc3ccccc3nc21 | 10.1 µM | > 49.5 µM |
| Cc1ccc(NC(=O)CC(=O)N2N=C(N3CCCCC3)CC2c2ccccc2)cc1 (stereo unspecified) |  | > 100 µM |
| CCOC(=O)Nc1ccc2nc(N3CCCCCC3)sc2c1 | 20.6 µM | > 100 µM |
| O=C1NC(=S)N/C1=C\c1ccc(Cl)cc1 |  | > 100 µM |
| O=C(NNC(=S)Nc1ccc(Cl)cc1)C12CC3CC(CC(C3)C1)C2 |  | 44.1 µM |
| CS(=O)(=O)c1ccc2c(c1)C(=O)c1c-2n(CCCBr)c(=O)c2cc([N+](=O)[O-])ccc12 | > 100 µM | > 100 µM |
| CS(=O)(=O)O[C@H]1C(=O)N(c2cc3c4ccccc4ccc3c3ccccc23)[C@@H]1c1ccccn1 | 16 µM | > 100 µM |
| Cc1ccc(C(=O)C(c2nc3n(c2O)C(=N)N=N3)c2nc3n(c2O)C(=N)N=N3)cc1 (stereo unspecified) |  | > 100 µM |
| Brc1c2c(c(Br)c3nsnc13)N=S=N2 |  | > 100 µM |
| CC(C)=CC1C(COC(=O)c2ccccc2Cl)C1(C)C (stereo unspecified) |  | > 100 µM |
| COc1cccc(C2c3cc4c(cc3OC(NNC(N)=O)C2C)OCO4)c1O (stereo unspecified) |  | > 57.7 µM |
| O=C1CNc2cc(N3CCOCC3)ccc2N1 |  | > 100 µM |
| COC(=O)CNC(=O)CNC(=O)CSc1nnc(COc2ccc(Cl)cc2)n1-c1ccccc1 |  | > 100 µM |
| COc1ccc2nc3cc([N+](=O)[O-])ccc3c(NNc3ccc([N+](=O)[O-])cc3)c2c1 |  | > 100 µM |
| CN1C(c2ccccc2)CC(C)(O)CC1c1ccccc1 (stereo unspecified) |  | > 100 µM |
| CC(NC(=O)C(N)CC(=O)O)C(=O)OC12CC3CC(CC(C3)C1)C2 (stereo unspecified) |  | > 100 µM |
| CCCCCCCCCCCCNC(=O)N[C@H](C(=O)N[C@H]1/C=C/CCNC(=O)/C=C/[C@H](C)NC1=O)C(C)C | 0.517 µM | 12.9 µM |
